Results on 56 compounds are retold here after paper PMC4336329 (PLoS ONE, 2015).

The structures appear in SMILES notation. Among all 310,000 compounds or so, about 14,000 (4.5%) showed an effect of 50% or more. The effect is printed as a negative number. Some of the results follow.
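Further: peak tail current of the secondary pulse compared with the same well before compound.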

The target in this assay is human ether-à-go-go-related gene (hERG) potassium channel (human, UniProt Q12809). As to the kind of experiment: primary screen, population patch clamp on CHO cells stably expressing hERG.
human ether-à-go-go-related gene (hERG) potassium channel, sequence (Q12809 whole entry, looked up): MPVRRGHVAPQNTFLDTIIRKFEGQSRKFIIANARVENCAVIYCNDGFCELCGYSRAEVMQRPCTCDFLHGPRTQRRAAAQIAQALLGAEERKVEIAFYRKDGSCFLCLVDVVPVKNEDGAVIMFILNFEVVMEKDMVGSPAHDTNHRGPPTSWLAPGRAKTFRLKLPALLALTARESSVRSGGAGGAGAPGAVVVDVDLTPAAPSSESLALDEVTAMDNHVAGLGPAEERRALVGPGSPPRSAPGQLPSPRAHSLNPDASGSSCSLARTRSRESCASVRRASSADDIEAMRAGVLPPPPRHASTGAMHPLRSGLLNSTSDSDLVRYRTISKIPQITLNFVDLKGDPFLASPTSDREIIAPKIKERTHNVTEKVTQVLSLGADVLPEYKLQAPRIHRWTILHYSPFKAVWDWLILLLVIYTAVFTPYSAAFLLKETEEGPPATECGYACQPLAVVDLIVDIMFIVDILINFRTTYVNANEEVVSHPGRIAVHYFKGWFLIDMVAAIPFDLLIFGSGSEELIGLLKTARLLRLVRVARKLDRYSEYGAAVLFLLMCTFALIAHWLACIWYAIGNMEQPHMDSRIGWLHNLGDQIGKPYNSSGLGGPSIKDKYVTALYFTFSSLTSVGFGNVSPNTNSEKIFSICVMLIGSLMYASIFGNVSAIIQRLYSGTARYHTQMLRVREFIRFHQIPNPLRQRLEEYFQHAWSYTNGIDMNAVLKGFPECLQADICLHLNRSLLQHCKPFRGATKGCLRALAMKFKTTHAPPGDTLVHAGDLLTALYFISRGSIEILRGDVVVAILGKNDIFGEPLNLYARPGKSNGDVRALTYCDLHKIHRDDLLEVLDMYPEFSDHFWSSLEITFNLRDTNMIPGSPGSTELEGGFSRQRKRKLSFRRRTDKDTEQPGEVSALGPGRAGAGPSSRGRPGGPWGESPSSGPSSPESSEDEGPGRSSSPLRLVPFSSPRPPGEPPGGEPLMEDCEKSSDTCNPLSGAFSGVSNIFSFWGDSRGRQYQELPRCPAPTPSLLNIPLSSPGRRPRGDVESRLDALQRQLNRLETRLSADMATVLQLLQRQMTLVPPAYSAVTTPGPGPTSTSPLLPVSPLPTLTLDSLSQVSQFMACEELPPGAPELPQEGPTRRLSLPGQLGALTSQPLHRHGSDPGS
Regarding `Cc1ccc(NC(=O)C(C)Sc2nnc(C)n2C2CC2)cc1S(=O)(=O)N1CCOCC1` (centres unmarked), the “hERG current change (%, negative = inhibition) at 10uM” value is listed as -13.9%. For `O=C1CC(N2CCC(c3nc4ccccc4o3)CC2)C(=O)N1` (centres unmarked) the value was 15.2%.

Turning to `O=C(NCCCn1ccnc1)C1CCN(S(=O)(=O)c2ccc(F)cc2)CC1`, the “hERG current change (%, negative = inhibition) at 10uM” value amounted to 13.5%. Consider `Cc1cc(NC2CCCCC2)nc(N2CCOCC2)n1`, for which the “hERG current change (%, negative = inhibition) at 10uM” value was -18.6%. Regarding `CC1CCN(S(=O)(=O)c2ccc(NN=C(C#N)C#N)cc2)CC1`, the “hERG current change (%, negative = inhibition) at 10uM” value is -36.1%.

On to `CCc1ccc(NC(=O)C2CCN(S(=O)(=O)c3c(C)noc3C)CC2)cc1`, for which the “hERG current change (%, negative = inhibition) at 10uM” value was found to be 4.09%.

Turning to `CCc1ccc(N2C(=O)CC(=O)NC2=O)cc1`, the “hERG current change (%, negative = inhibition) at 10uM” value is 8.54%. The result for `Cc1cccc(N2CCN(C(=O)c3cccc(S(=O)(=O)N4CCc5ccccc5C4)c3)CC2C)c1` (centres unmarked) reads -1.26%; that for `COc1ccc(NC(=O)COC(=O)CCc2cc(OC)c(OC)c(OC)c2)c([N+](=O)[O-])c1`, -3.66%; that for `Br.O=C(O)Cc1sc(N/N=C\c2ccccc2)nc1-c1ccccc1`, 7.37%. On to `COc1cc(OC)c(NS(=O)(=O)c2cc(C(=O)OC(C)C(=O)NC3CC3)c(Cl)cc2Cl)cc1Cl` (centres unmarked), for which the “hERG current change (%, negative = inhibition) at 10uM” value is -37%.

As for `O=C1CC(N2CCOCC2)C(=O)N1c1ccccc1Cl` (centres unmarked), the “hERG current change (%, negative = inhibition) at 10uM” value stood at 4.97%. Take `CS(=O)(=O)c1ccc(N2CCN(S(=O)(=O)c3cccs3)CC2)c([N+](=O)[O-])c1`: the “hERG current change (%, negative = inhibition) at 10uM” value was -67.1%. For `O=C1C2C3CCCC3=C3CCCC3C2C(=O)N1c1ccc(Cl)cc1` (centres unmarked) the value was 6.23%.

Consider `CC(C)=CCN1CCN(Cc2ccc(N3CCNC3=O)cc2)CC1CCO` (centres unmarked), for which the “hERG current change (%, negative = inhibition) at 10uM” value was found to be 13.9%. The result for `C=CCOn1c(=O)c(-c2cccs2)[n+]([O-])c2ccccc21` reads -11.1%; that for `CCN(CC)c1ccc(NC(=O)COc2ccc(N(C)S(=O)(=O)c3cccs3)cc2)cc1`, 8.15%. The result for `COCCn1c(SCC(=O)Nc2cccc(OC)c2)nnc1-c1ccc(Cl)cc1` reads -43.7%.

On to `Cc1ccc2c(c1)/C(=N/OC(=O)c1ccc(F)cc1)CCS2`, for which the “hERG current change (%, negative = inhibition) at 10uM” value is on record as 6.83%. For the compound `Cc1ccc(C(=O)N[C@H](C(=O)Nc2cc(Cl)cc(Cl)c2)C(C)C)cc1`, the “hERG current change (%, negative = inhibition) at 10uM” value turned out to be 12.1%. For `CNc1nc(Nc2ccccc2)nc(OCC(F)(F)F)n1` the value was -10.2%.

Consider `CCN1C(=O)c2cccc3c(S(=O)(=O)NCc4ccco4)ccc1c23`, for which the “hERG current change (%, negative = inhibition) at 10uM” value is reported as -11.2%. For `Cc1[nH]nc(SCC(=O)Nc2ccc(C#N)cc2)c1[N+](=O)[O-]`, the “hERG current change (%, negative = inhibition) at 10uM” value worked out at 3.18%.

As for `COc1cc(/C=C2\SC(=O)N(CC(=O)Nc3cccc(C)c3)C2=O)ccc1OC(C)C(=O)O` (centres unmarked), the “hERG current change (%, negative = inhibition) at 10uM” value stood at 7.11%. Take `CCOC(=O)C(=O)Nc1cc(C)on1`: the “hERG current change (%, negative = inhibition) at 10uM” value turned out to be 26.8%.

Turning to `Cc1ccc(S(=O)(=O)N/N=C/c2cccs2)cc1`, the “hERG current change (%, negative = inhibition) at 10uM” value was 9.65%. As for `Cc1c(F)cccc1NS(=O)(=O)c1ccc2c(c1)c(C)cc(=O)n2C`, the “hERG current change (%, negative = inhibition) at 10uM” value is -8.65%. Regarding `O=C(COc1ccc(-n2cnnn2)cc1)Nc1cccc(Cl)c1Cl`, the “hERG current change (%, negative = inhibition) at 10uM” value was found to be 16.8%. For `CN(CCCNC(=O)CCCOc1cc(=O)n(C)c2ccccc12)Cc1ccccc1`, the “hERG current change (%, negative = inhibition) at 10uM” value is -11%.

As to `O=C(NCCc1ccccc1)c1ccc(OCCOc2ccccc2)cc1`, the “hERG current change (%, negative = inhibition) at 10uM” value worked out at 18.6%. The result for `Cc1ccc(-c2nnn(CCOc3cccc(Br)c3)n2)cc1` reads 2.7%; that for `CC(C)CCNC(=O)C(c1ccncc1)N(CC1CCCO1)C(=O)Cn1nnc(-c2ccc(F)cc2)n1` (centres unmarked), -64.8%. As for `Cc1ccc(N=Cc2c(C)[nH]n(-c3ccccc3)c2=O)nc1`, the “hERG current change (%, negative = inhibition) at 10uM” value is -9.76%.

As for `CCOC(=O)NNc1ccc2nonc2c1[N+](=O)[O-]`, the “hERG current change (%, negative = inhibition) at 10uM” value was found to be 10.1%. The result for `Cc1ccc(NC(=O)c2cccc3cccnc23)cc1` reads 8.79%; that for `CCC(N=c1cc(-c2ccc(OC)c(OC)c2)oc2ccc(C)cc12)C(=O)O` (centres unmarked), -20.7%; that for `CCCn1nc(C(=O)N2CC(=O)Nc3ccccc32)c2ccccc2c1=O`, 0.424%. The result for `Cc1ccc(F)cc1S(=O)(=O)NCc1ccc(N2CCN(C)CC2)cc1` reads -20.8%; that for `COc1ccc([C@H]2CC(=O)C=C(c3ccc(Cl)c(C(F)(F)F)c3)C2)cc1`, -6.76%. The result for `Cc1ccc(N(CC(=O)NCCSc2nc3ccccc3s2)S(=O)(=O)c2ccccc2)c(C)c1` reads -42.1%; that for `CCN(CC)CCCNC(=O)CCC(=O)NNc1nc2ccccc2c2nc(C)nn12`, 7.92%; that for `CC(=O)c1ccc(OCC(=O)NCc2ccc(F)cc2)cc1`, -11.5%. For the compound `CC1CN(S(=O)(=O)c2cccc(C(=O)OC(C)C(=O)NC3CCCCC3C)c2)CC(C)O1` (centres unmarked), the “hERG current change (%, negative = inhibition) at 10uM” value is listed as -25.8%. For `COCc1cc(C)nc(SCC(=O)Nc2ccccc2C)c1C#N` the value was -2.77%. For `OCCn1ccc(-c2ccccc2OCc2ccc(F)cc2)n1` the value was 4.9%; for `COC(=O)C(=O)/C=C(\O)c1c(C)cc(C)cc1C`, 14.9%. The result for `S=C(NCCNC(=S)Nc1ccccc1)Nc1ccccc1` reads 16%. For the compound `CCOc1cc(/C=N/NC(=O)c2ccc(NC(=O)C3CC3)cc2)ccc1O`, the “hERG current change (%, negative = inhibition) at 10uM” value is given as -0.392%. The result for `CCCCC1=NN(C(=O)c2ccco2)C(O)(C(F)(F)F)C1` (centres unmarked) reads 6.78%. The result for `OCCN1CCN(C(=S)Nc2ccc(Oc3ccccc3)cc2)CC1` reads -22.2%.

Regarding `CCN1CCN(CCCNC(=O)CCC(=O)N2CCOc3ccc(Cl)cc32)CC1`, the “hERG current change (%, negative = inhibition) at 10uM” value is on record as -5.48%. The result for `Cc1cc(C)c2c(CN3CCCCC3)cc(=O)oc2c1` reads 10.7%; that for `CCOC(=O)c1sc2nc(CN3CCN(c4cccc(C(F)(F)F)c4)CC3)[nH]c(=O)c2c1C`, 8.43%; that for `CCn1ncc(C(=O)Nc2cc(C)on2)c1C`, 4.46%. For `CCOC(=O)c1c(NC(=O)CSc2nnc(CNc3ccc(Cl)cc3)o2)sc(C)c1C` the value was 16.9%; for `CC(C)=CCC/C(C)=C/Cc1c(O)ccc(C(=O)/C=C/c2ccc(O)cc2)c1O`, 15.8%.
